The experiment has as its target rat brain IIA Na+ channel (Rattus norvegicus, UniProt P04775). The experiment can be described thus: cell-based.
Sequence of UniProt P04775 (P04775 whole entry): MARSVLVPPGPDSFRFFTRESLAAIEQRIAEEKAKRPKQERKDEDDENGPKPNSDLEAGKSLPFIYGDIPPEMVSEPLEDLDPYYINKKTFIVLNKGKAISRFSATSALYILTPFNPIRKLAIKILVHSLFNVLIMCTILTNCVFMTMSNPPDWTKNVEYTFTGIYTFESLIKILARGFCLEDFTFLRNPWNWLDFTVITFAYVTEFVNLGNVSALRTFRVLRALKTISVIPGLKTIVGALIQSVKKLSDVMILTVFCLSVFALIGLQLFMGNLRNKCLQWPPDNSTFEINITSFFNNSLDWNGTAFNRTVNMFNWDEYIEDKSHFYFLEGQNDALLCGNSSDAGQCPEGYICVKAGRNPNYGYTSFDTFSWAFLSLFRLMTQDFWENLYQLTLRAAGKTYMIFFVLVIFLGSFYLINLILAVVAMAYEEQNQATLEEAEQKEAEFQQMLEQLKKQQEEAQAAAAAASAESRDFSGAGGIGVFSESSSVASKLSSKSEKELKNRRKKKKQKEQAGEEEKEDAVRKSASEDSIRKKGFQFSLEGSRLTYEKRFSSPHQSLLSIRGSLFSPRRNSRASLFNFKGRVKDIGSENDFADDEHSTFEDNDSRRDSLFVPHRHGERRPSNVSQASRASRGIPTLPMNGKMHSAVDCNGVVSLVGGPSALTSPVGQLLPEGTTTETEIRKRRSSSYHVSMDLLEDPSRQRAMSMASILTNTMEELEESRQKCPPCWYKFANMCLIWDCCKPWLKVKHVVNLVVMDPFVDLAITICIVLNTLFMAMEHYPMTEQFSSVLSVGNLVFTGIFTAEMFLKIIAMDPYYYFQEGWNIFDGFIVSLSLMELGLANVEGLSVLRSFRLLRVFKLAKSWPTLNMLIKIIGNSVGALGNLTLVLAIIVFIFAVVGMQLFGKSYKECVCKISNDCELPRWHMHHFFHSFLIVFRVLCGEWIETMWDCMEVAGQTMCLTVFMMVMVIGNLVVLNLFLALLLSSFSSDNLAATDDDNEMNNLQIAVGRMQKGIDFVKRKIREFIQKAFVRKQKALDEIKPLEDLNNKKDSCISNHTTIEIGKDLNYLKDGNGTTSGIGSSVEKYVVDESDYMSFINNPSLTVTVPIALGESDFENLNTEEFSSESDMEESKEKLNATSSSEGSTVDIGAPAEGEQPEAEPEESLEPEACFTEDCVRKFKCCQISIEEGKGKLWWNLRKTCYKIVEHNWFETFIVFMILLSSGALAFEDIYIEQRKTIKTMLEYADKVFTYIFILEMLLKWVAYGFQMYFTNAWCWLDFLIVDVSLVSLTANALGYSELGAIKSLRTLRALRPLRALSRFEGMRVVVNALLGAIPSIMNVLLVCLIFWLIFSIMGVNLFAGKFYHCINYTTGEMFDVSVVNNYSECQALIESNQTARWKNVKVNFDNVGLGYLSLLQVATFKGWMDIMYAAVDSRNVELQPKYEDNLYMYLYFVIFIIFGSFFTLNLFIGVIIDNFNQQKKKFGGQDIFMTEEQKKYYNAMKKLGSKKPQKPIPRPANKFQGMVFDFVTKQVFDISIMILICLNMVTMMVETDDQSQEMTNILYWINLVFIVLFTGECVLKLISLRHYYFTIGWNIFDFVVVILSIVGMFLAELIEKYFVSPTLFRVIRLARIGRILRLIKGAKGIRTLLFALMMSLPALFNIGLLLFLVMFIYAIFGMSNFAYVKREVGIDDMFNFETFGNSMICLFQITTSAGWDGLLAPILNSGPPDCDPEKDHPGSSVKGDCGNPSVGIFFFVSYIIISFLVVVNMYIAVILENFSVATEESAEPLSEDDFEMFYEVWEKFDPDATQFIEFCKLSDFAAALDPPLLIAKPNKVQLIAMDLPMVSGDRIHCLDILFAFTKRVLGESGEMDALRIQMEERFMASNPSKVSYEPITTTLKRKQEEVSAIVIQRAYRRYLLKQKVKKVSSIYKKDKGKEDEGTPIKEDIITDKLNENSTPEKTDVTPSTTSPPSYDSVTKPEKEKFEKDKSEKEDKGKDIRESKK

As for `COc1ccc(CCN(Cc2ccccc2)CC(O)COc2cccc(C)c2)cc1OC` (stereo not drawn) [Example 2, 1-{Benzyl-[2-(3,4-dimethoxyphenyl)-ethyl]amino}-3-m-tolyloxy-propan-2-ol], the IC50 (in general, the concentration that inhibits the measured activity by half) came out at 8.9 µM.
The compound `COc1ccc(CCN(Cc2ccccc2)CC(O)COc2cccc(C(F)(F)F)c2)cc1OC` (stereo not drawn) [Example 20, 1-{Benzyl-[2-(3,4-dimethoxyphenyl)-ethyl]-amino}-3-(3-trifluoromethylphenoxy)-propan-2-ol] registered an IC50 of 11.5 µM.
`COc1ccc(CCN(C)CC(O)COc2ccc(C3CCCCC3)cc2C)cc1OC` (stereo not drawn) [Example 24, 1-(4-Cyclohexyl-2-methylphenoxy)-3-{[2-(3,4-dimethoxyphenyl)-ethyl]-methylamino}-propan-2-ol]: the IC50 was 8.1 µM.
